Test results: paper PMC4336329 (PLoS ONE, 2015)
Among all 310,000 compounds or so, about 14,000 (4.5%) showed an effect of 50% or more. Effects have a minus sign here. The list shows a part of the results.

What follows are molecules tested against human ether-à-go-go-related gene (hERG) potassium channel (human, UniProt Q12809) (assay: primary screen, population patch clamp on CHO cells stably expressing hERG).
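Further: peak tail current of the secondary pulse compared with the same well before compound.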

Chain of human ether-à-go-go-related gene (hERG) potassium channel (Q12809 whole entry, looked up): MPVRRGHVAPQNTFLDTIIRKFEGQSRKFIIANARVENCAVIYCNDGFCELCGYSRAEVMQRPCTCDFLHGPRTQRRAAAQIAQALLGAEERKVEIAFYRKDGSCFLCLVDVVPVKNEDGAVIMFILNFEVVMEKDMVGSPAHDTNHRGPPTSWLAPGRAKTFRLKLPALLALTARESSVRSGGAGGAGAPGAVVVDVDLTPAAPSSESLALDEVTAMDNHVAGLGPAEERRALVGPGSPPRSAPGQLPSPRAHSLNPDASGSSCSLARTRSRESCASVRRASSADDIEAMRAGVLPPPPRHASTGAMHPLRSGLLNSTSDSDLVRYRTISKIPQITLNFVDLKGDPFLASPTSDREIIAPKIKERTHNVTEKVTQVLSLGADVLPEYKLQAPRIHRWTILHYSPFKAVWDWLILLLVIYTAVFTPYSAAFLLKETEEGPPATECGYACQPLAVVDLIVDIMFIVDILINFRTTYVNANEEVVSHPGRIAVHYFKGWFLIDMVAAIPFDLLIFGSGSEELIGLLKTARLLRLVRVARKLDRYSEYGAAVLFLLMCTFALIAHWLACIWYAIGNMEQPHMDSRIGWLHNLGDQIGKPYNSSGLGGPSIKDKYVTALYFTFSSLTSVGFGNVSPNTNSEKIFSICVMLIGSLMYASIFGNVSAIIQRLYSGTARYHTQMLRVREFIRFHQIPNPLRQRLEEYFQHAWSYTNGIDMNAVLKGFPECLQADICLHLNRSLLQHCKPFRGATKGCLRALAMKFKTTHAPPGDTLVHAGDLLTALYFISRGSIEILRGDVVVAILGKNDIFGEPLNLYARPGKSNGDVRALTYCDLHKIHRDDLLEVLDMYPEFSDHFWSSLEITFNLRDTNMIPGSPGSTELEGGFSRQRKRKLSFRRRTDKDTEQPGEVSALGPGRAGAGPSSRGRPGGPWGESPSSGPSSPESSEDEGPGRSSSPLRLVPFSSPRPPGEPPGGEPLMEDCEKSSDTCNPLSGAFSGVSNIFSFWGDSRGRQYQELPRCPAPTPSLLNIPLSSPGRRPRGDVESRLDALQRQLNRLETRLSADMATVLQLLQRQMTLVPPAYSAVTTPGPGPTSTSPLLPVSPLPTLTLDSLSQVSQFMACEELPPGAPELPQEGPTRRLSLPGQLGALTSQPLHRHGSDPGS

Structure (SMILES) | hERG current change (%, negative = inhibition) at 10uM [%]
COc1ccc(C2(C)NC(=O)N(CC(=O)Nc3ccc(S(=O)(=O)N4CCCC4)cc3)C2=O)cc1 (stereo not shown) | -2.91
O=C(O)c1ccc([N+](=O)[O-])c(CS(=O)(=O)c2ccc(Cl)cc2)c1 | 6.82
COc1ccc(-c2c(C)n([O-])c3c([n+]2=O)CCCC3)c(OC)c1 | 6.26
O=C(O)c1ccc(Cl)c(S(=O)(=O)NCC2CCCO2)c1 (stereo not shown) | 6.15
COc1ccc(NC(=S)N2CCN(C(=O)C3CCCO3)CC2)c(OC)c1 (stereo not shown) | 14.1
O=C1OCCC1Sc1nnc(-c2ccc3c(c2)OCO3)n1-c1ccccc1 (stereo not shown) | -3.33
CCCCCn1nc(-c2ccccc2)c2nc3ccccc3nc21 | 8.24
COc1cc(/C=N/NC(=O)C(=O)/C=C2\NC3(CCCC3)Cc3ccccc32)ccc1O | 15.9
COc1ccccc1N=C1SCC(=O)N1c1ccccc1OC | 17.7
CC(CCc1ccccc1)NC(=O)COC(=O)c1ccc([N+](=O)[O-])cc1 (stereo not shown) | -22.1
CCC(C)NC(=O)CSc1nc2ccccc2c(=O)n1CCCN1CCCCC1 (stereo not shown) | -13.8
Nc1nc(CSc2ccc(Cl)cc2)nc(N2CCCCC2)n1 | -6.41
CCN(C(=O)CCCCC(=O)N(CC)c1ccccc1)c1ccccc1 | 2.5
COc1ccc(OCCC(=O)NCC23CC4CC(CC(C4)C2)C3)cc1 | -2.52
CC(C)Cc1ccc(S(=O)(=O)N2CCN(C(=O)c3ccco3)CC2)cc1 | -11.1
Cc1ccc(S(=O)(=O)N(C)C)cc1NC(=O)Nc1ccccc1 | 5.83
COCCCNC(=O)Cn1cc(C(=O)c2cccs2)c2ccccc21 | -12
CCOC(=O)c1c(NC(=O)/C=C/C(=O)O)sc(C)c1-c1ccc(F)cc1 | 23.5
COc1ccc(CCC(=O)N2CCN(S(=O)(=O)c3ccc(OC(F)(F)F)cc3)CC2)cc1 | -39.9
CCNC(=O)NC(=O)C(C)OC(=O)c1ccc(-n2nc(SC)sc2=S)cc1 (stereo not shown) | -10.8
CCOC(=O)CSc1nnc(CNc2ccccc2Cl)n1-c1ccccc1 | -7.91
O=C(NNc1ccc(Cl)cc1)c1c(F)cccc1Cl | 13.7
O=C(CSc1nnc(-c2cccnc2)n1Cc1ccco1)Nc1nc(-c2ccc(F)cc2)cs1 | -70.6
O=C1C=C(c2ccc3[nH]ccc3c2)C[C@@H](c2ccc(F)cc2)C1 | 2.56
CC(=O)Nc1nnc(S(=O)(=O)N2CCN(c3ccc([N+](=O)[O-])cc3Cl)CC2)s1 | -4.29
CC(=O)Nc1ccc(NC(=O)c2ccc(CN3CCc4ccccc4C3)cc2)cc1 | 13.6
CCOc1ccc(C(=O)NC(=S)Nc2ccc(NC(=O)c3ccco3)c(C)c2)cc1[N+](=O)[O-] | 23.1
CN1CCN(/C=N/c2sc3c(c2C#N)CCCCC3)CC1 | -12.1

Structure (SMILES) | hERG current change (%, negative = inhibition) at 10uM [%]
Cc1ccc(C(=O)NC2CCS(=O)(=O)C2)cc1S(=O)(=O)N1CCCC1 (stereo not shown) | -14.2
Cc1nc2ccccc2c(=O)n1NC(=O)c1c(F)cccc1F | -2.18
CCN(c1ccccc1)S(=O)(=O)c1ccc(N)c(OC)c1 | -5.62
CCC(Oc1ccc(F)cc1)C(=O)N1CCCCCCC1 (stereo not shown) | 5.11
CCOC(=O)c1oc2c(c1C)/C(=N/O)CCC2 | 13.4
Nc1nonc1-n1nnc(C(=O)N/N=C/c2ccccc2Cl)c1COc1ccc(F)cc1 | 2.38
COc1ccc(CCNC(=S)N2CCC(C(=O)c3ccc(F)cc3)CC2)cc1OC | -19.2
COc1ccc(Cn2c(O)c(C=Nc3ccccc3)c3ccccc3c2=O)cc1 | 11.4
Oc1c(Br)cc(Br)cc1C=Nc1ccc2[nH]ncc2c1 | 2.67
O=C(CN(Cc1ccco1)C(=O)CNS(=O)(=O)c1ccc(Cl)cc1)NCC1CCCO1 (stereo not shown) | -6.32
CC1CN(CCCCOc2ccc(Cl)c3ccccc23)CC(C)O1.O=C(O)C(=O)O (stereo not shown) | 21.3
Cc1cc(C)n(CCn2nc(C)cc2C)n1 | 4.43
CCCOc1ccc(Cn2c(=O)oc3ccc(C)cc32)cc1 | -3.82
CCOC(=O)C1CCN(C(=O)CCNC(=O)Cn2ccc3ccccc3c2=O)CC1 | -1.95
O=C(c1ccc2oc(Cc3ccc(Cl)cc3)nc2c1)N1CC[C@H](O)C1 | 4.21
Cc1sc2ncnc(OCC(=O)N3CCN(S(=O)(=O)c4ccccc4)CC3)c2c1C | -2.31
Cc1c(Cl)cccc1NC(=O)CC(Cc1ccccc1)C(=O)O (stereo not shown) | 22.6
NC(=O)C1c2ccccc2Oc2ccccc21 | 13.7
Cc1nc2scc(-c3ccccc3)c2c(=O)n1N | -1.43
Cc1ccccc1N1CCN(C(=O)c2ccccc2NC(=O)/C=C\C(=O)O)CC1 | 14.3
C#CCN(CC=C)C(=O)c1ccc2nc(C3CCCCC3)oc2c1 | -9.98
O=C(NNC(=S)Nc1ccc(Br)cc1)c1ccccc1Br | 18.5
Cc1cc(=O)cc(C)n1-c1ccccc1Br | 15.8
CC(C)Cn1c(N2CCN(C(=O)c3cccs3)CC2)nc2ccccc21 | -73.6
COc1cccc(CNC(=O)COC(=O)CN(C)S(=O)(=O)c2ccc(NC(C)=O)cc2)c1 | 5.95
Cc1cc(C)c2c(N)c(C(=O)N3CCc4ccccc4C3)sc2n1 | -17.6
Cn1c(=O)c2cc(S(=O)(=O)NC(Cc3ccccc3)C(=O)NCC3CCCO3)ccc2n(C)c1=O (stereo not shown) | 23.7
